In the RNAGym collection of RNA variant scans (doi:10.1093/nar/gkz1192):
Read counts are not given, so values of variants with three or more changes are uncertain.

B1: CPEB3 Ribozyme (parent)
chain: UAACAGGGGGCCACAGCAGAAGCGUUCACGUCGCAGCCCCUGUCAGAUUCUGGUGAAUCUGCGAAUUCUGCUGUAUAUCUC

Variants of: B1
Assay: self-cleavage, relative activity (ratio to wild type); higher = more cleavage; in vitro, sequencing
In short: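 Libraries of CPEB3 self-cleaving ribozyme mutants came from rounds of error-prone PCR and carried barcodes, which DNA sequencing matched to variants. In vitro transcription used T7 RNA polymerase at 37°C for 5 hours, with a further 15 min in DNase I before EDTA stopped the reaction; the ribozymes cleaved during both steps. The RNA was reverse transcribed with template switching and sequenced on Illumina. Relative activity is the cleaved/total read fraction of a variant divided by that of the unmutated ribozyme, averaged over three batches with at least 5 reads.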

Variant | self-cleavage
UAACAGGGGGCCACAGCAGAAGCGUUCACGGCGCAGCCCCUGUCGGAUUCUGGUGAAUCUGCGGAUCCUGCUGUAUAUCUC [U31G A45G A64G U67C] | 0.18
UAACAGGGGGCCACAGCAGAAGCGUUCACGGCGCAGCCCCUGUCAGGUUCUGAUGAAUCUGCGAAUUCUGCUGUAUAUCUC [U31G A47G G53A] | 0.71
UAACAGGGGGCCACAGCAGAAGCGUUCACGGCGCAGCCCCUGUCAGAUUCUGGUGAGUCUGCGAAUUCUGCCGUAUAUCUC [U31G A57G U72C] | 1
UAACAGGGGGCCACAGCAGAAGCGUUCACGGCGCAGCCCCUGUCAGAUUCUGGUGAAUCUGCGGCUUCUGCUGUAUAUCUC [U31G A64G A65C] | 0.23
UAACAGGGGGCCACAGCAGAAGCGUUCACGGCGCAGCCCCUGUCAGAUUCUGGUGAAUCUGCGAUUUCCGCAGUAUAUCUC [U31G A65U U69C U72A] | 0.12
UAACAGGGGGCCACAGCAGAAGCGUUCACGGUGCAGCCCCCGUUAGAUUCUGGUGAAUCUGCGAAUUCUGCUGUAUAUCUC [U31G C32U U41C C44U] | 0.12
UAACAGGGGGCCACAGCAGAAGCGUUCACGGCGAAGCCCCUGUCAGAUUCUGGUGAACCUGCGAACUCUGCUGAAUAUCUC [U31G C34A U58C U66C U74A] | 0.06
UAACAGGGGGCCACAGCAGAAGCGUUCACGGCGCAGCACCUGUCAGAUUCUGGUGAAUCUGCAGAUUGUGCUGCAUAUCUC [U31G C38A G63A A64G C68G U74C] | 0.04
UAACAGGGGGCCACAGCAGAAGCGUUCACGGCACUGCCCCUGUCAGAUUCUGGUGAAUCUGCGUAUUCUGCUGUAUAUCUC [U31G G33A A35U A64U] | 0.09
UAACAGGGGGCCACAGCAGAAGCGUUCACGGCGCAGCCCCUGUCAGAUUCUGUAGGAUCUACGAAAUCUGCUCUAUAUCUC [U31G G53U U54A A56G G61A U66A G73C] | 0.11
UAACAGGGGGCCACAGCAGAAGCGUUCACGGCGCAGCCCCCGUCAGAUUCUGGUGAAUCAGCGAAUUCUCCUGUAUAUCUC [U31G U41C U60A G70C] | 0.21
UAACAGGGGGCCACAGCAGAAGCGUUCACGGCGCAGCCCCUGUCAGAUUCUGGUGAACCUGCGAAUUCUGCUGUAUGUCUC [U31G U58C A77G] | 0.17
UAACAGGGGGCCACAGCAGAAGCGUUCACGGCGCAGCCCCUGUCAGAUUCUGGUGAACCUGCGAAUUCUGCAGUAUAUCUC [U31G U58C U72A] | 0.15
UAACAGGGGGCCACAGCAGAAGCGUUCACGGCGCAGCCCCUGUCAGAUUCUGGUGAAUCCGCGGAUUCCGCUGUAUAACUC [U31G U60C A64G U69C U78A] | 0.12
UAACAGGGGGCCACAGCAGAAGCGUUCACGGCGCAGCCCCUGUCAGAUUCUGGUGAAUCUGCGAACUUCGCUGUAUAUCCC [U31G U66C C68U U69C U80C] | 0.09
UAACAGGGGGCCACAGCAGAAGCGUUCACGGCGCAGCCCCUGUCAGAUUCUGGUGAAUCUGCGAACCCUGCUGUAUAUCUC [U31G U66C U67C] | 0.18
UAACAGGGGGCCACAGCAGAAGCGUUCACGGCGCAGCCCCUGUCAGAUUCUGGUGAAUCUGCGAAUUCCGCUGUAUACCUC [U31G U69C U78C] | 0.23

Variant | self-cleavage
UAACAGGGGGCCACAGCAGAAGCGUUCACGUAGCAGCCCCUGUCGGAUUCUGGUGAAUCUGCGAAUUCCGCUGUAUAUCUC [C32A A45G U69C] | 0.13
UAACAGGGGGCCACAGCAGAAGCGUUCACGUAGCAGCCCCUGUCAGGUUCUAGUGAAUCUGCGAAUUCUGCUGUAUAUCUC [C32A A47G G52A] | 0.11
UAACAGGGGGCCACAGCAGAAGCGUUCACGUAGCAGCCCCUGUCAGUCUCUGGUGAAGCUGCGAAUUCUGCUGUAUAUCUC [C32A A47U U48C U58G] | 0.06
UAACAGGGGGCCACAGCAGAAGCGUUCACGUAGCAGUCCUUGUCAGAUUCUGGUGAAUCUGCGUAUUCUGCUGUAUAUCUC [C32A C37U C40U A64U] | 0.13
UAACAGGGGGCCACAGCAGAAGCGUUCACGUAGCAGCGCCUGUCAGAUUCUGGUGAAUCUGCGAAUUCUGCUGUAUACCUC [C32A C38G U78C] | 0.07
UAACAGGGGGCCACAGCAGAAGCGUUCACGUAGCAGCCCCUGUUAGAUUCUGGUGAAUCUGCGAAUCCUGCUGUAUAUCUC [C32A C44U U67C] | 0.11
UAACAGGGGGCCACAGCAGAAGCGUUCACGUAGCAGCCCCUGCCAGAUUCUGGUGAAUCUGCGAAUUCUGCGGUAUAUCUC [C32A U43C U72G] | 0.07
UAACAGGGGGCCACAGCAGAAGCGUUCACGUAGCAGCCCCUGUCAGAAUCUGGUGAAUCUGCGAAUUCAGCUGUAUAUCUC [C32A U48A U69A] | 0.17
UAACAGGGGGCCACAGCAGAAGCGUUCACGUAGCAGCCCCUGUCAGAUUCCGGUGAAUCUGCGAAUUCUGCUGUAUACCUC [C32A U51C U78C] | 0.13
UAACAGGGGGCCACAGCAGAAGCGUUCACGUGGCAGCCCCUGUCUGAUUCUGGUGAGUCUGCGAAUUCUGCUGUAUAUCUC [C32G A45U A57G] | 0.15
UAACAGGGGGCCACAGCAGAAGCGUUCACGUGGCAGCCCCUGUCAGUUUCUGGUGAAUCUGCGAAUUCUGCCGUAUAUCUC [C32G A47U U72C] | 0.08
UAACAGGGGGCCACAGCAGAAGCGUUCACGUGGCAACCCCUGUCGGACUCUGGUGAAUCUGCGAAUUCAGCUGUAUAUCUC [C32G G36A A45G U48C U69A] | 0.09
UAACAGGGGGCCACAGCAGAAGCGUUCACGUGGCAGCCCCUGUCAGAUUCAGGUUAACCUGCGGAUUCUGCUGUAUAUCUC [C32G U51A G55U U58C A64G] | 0.08
UAACAGGGGGCCACAGCAGAAGCGUUCACGUUGCGGCCCCUGUCAGAUUCUGGUGAGUCUGCGAAUUCUGCGGCAUAUCCC [C32U A35G A57G U72G U74C U80C] | 0.03
UAACAGGGGGCCACAGCAGAAGCGUUCACGUUGCUGCCCCUGUCAGGUUCUGGUGAAUCUGCGAACUCUGCUGUAUUUCUC [C32U A35U A47G U66C A77U] | 0.06
UAACAGGGGGCCACAGCAGAAGCGUUCACGUUGCUGCCCCUGUCAGAUUCUGGUGGAUCCGCGAAUUCUGCAGUAUAUCUC [C32U A35U A56G U60C U72A] | 0.07
UAACAGGGGGCCACAGCAGAAGCGUUCACGUUGCUGCCCCUGCCAGAUUCUGGUGAAUCUGCGAAUUCUGCUGUAUAUCUC [C32U A35U U43C] | 0.18
